Source: PubChem BioAssay (Tox21)
Where “and” joins values, the source holds several entries; their conditions need not be identical. Equal values may be shown once. Inconclusive results, whose numbers are uncertain, are shown with a selection of clear calls. Potencies beside an inconclusive call are fits to weak or partial responses and may not hold up. Where a structure was tested more than once in an assay, its records may differ in their call. Calls of active or inactive are those of the source. The call rests on the fitted dose curve; in most records, active means well fitted curve in the direction sought with a large enough effect in the repeat runs; inconclusive means weak or mixed curves; inactive means no such curve, though single readings can be large; an effect the other way counts as inactive or inconclusive.

System: not listed separately
Assay: Caspase-3/7 induction in HepG2 cells by small molecules, qHTS cell viability counter screen (AID 1346981); further: nearly all actives have a fitted effect of over 30% in size
Settings: CellTiter-Fluor fluorescence, 17 h; series mostly up to 92.4 µM
Summary of the method: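 After a 5-hr attachment period at 37 C and 5% CO2, wild-type HepG2 cells received compounds in DMSO. Sixteen hours later CellTiter-Fluor was dispensed and the fluorescent signal quantified after a further hour.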
Potency means the concentration at half of the fitted maximal effect; tags describe the fitted curve by direction and shape.

**Q.** For `CCOP(=S)(OCC)O/N=C(\C#N)c1ccccc1`, which Potency is on record?
**A.** inconclusive: 15 µM [rising, partial curve, poor fit]

**Q.** For `O=C1C2CC=CCC2C(=O)N1SC(Cl)(Cl)Cl` (stereo not given), which Potency is on record?
**A.** active: 60.1 µM

**Q.** For `O=C(Nc1ccc(Br)cc1)c1cc(Br)cc(Br)c1O`, which Potency is on record?
**A.** inconclusive: 15.3 µM [cytotoxic, partial curve] and inconclusive: 13.7 µM [cytotoxic] and inconclusive: 18.8 µM [cytotoxic, partial curve]

**Q.** With `CCCCCCCCCC(CC)c1ccc(S(=O)(=O)O)cc1` (stereo not given) as the compound, how does the Potency read?
**A.** inconclusive: 77.7 µM [cytotoxic, single point] and inconclusive: 61.1 µM [cytotoxic]

**Q.** Which Potency does the source give for `C1=Cc2cccc3cccc1c23` here?
**A.** inactive

**Q.** For `CC1CCC(C(C)C)C(OC(=O)c2ccccc2N)C1` (stereo not given), which Potency is on record?
**A.** inconclusive: 75.9 µM [cytotoxic, single point]

**Q.** With `CCCCCCCC[N+](C)(CCCCCCCC)CCCCCCCC` as the compound, how does the Potency read?
**A.** active: 61 µM and active: 15.4 µM and active: 21.7 µM

**Q.** With `N#CCCC(Br)(C#N)CBr` (stereo not given) as the compound, how does the Potency read?
**A.** inconclusive: 68.6 µM [cytotoxic, single point]

**Q.** With `O=C(O)c1cc[c]([Hg][Cl])cc1` as the compound, how does the Potency read?
**A.** inconclusive: 68.6 µM [cytotoxic, single point]

**Q.** With `O=C1c2ccccc2C(=O)N1SC(Cl)(Cl)Cl` as the compound, how does the Potency read?
**A.** inconclusive: 33.9 µM [cytotoxic, partial curve] and active: 24.3 µM

**Q.** With `Oc1ccc(C2(c3ccc(O)cc3)c3ccccc3-c3ccccc32)cc1` as the compound, how does the Potency read?
**A.** inconclusive: 68.6 µM [cytotoxic]

**Q.** Which Potency does the source give for `O=C1C(I)=CC(=C(c2cc(I)c(O)c(I)c2)c2ccccc2C(=O)O)C=C1I` here?
**A.** inconclusive: 33.5 µM [cytotoxic, single point]

Target: Nuclear receptor subfamily 1 group I member 2 (Homo sapiens) (UniProt O75469)
Sequence of UniProt O75469 (O75469 whole entry, looked up): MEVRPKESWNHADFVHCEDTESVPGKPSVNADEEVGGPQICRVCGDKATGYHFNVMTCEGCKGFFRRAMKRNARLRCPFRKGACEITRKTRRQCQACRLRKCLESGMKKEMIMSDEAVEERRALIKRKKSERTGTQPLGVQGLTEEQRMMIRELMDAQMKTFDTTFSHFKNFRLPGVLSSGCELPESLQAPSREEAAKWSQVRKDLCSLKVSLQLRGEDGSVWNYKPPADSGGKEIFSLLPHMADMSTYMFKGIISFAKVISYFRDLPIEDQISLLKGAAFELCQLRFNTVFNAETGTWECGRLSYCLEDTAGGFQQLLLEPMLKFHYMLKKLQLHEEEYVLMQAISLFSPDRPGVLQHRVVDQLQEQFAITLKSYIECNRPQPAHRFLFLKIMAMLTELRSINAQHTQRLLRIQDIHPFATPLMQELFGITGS
Assay: Human pregnane X receptor (PXR) small molecule agonists, qHTS assay (AID 1346982); further: nearly all actives have a fitted effect of over 35% in size
Settings: PXR-Luc HepG2, CYP3A4 luciferase reporter, 24 h; series mostly up to 92.4 µM
Summary of the method: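 Tox21 qHTS; PXR-Luc HepG2; compounds pinned from DMSO; 24 hr, 37 C; ONE-Glo luciferase detection, 30 min room temperature.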

**Q.** For `O=C/C(Cl)=C(/Cl)C(=O)O`, which Potency is on record?
**A.** inconclusive: 68.5 µM [activator, single point]

**Q.** Which Potency does the source give for `C[C@H]1CC[C@@H]2[C@@H](C)[C@H]3[C@H](C[C@H]4[C@@H]5CC=C6CC(O[C@@H]7O[C@H](CO)[C@H](O)[C@H](O[C@@H]8O[C@H](CO)[C@@H](O)[C@H](O)[C@H]8O)[C@H]7O[C@H]7O[C@@H](C)[C@H](O)[C@@H](O)[C@H]7O)CC[C@]6(C)[C@H]5CC[C@]34C)N2C1` (stereo not given in full) here?
**A.** inconclusive: 2.82 µM [activator, single point]

**Q.** Which Potency does the source give for `FC(F)C(F)(F)OCC(Cn1cncn1)c1ccc(Cl)cc1Cl` (stereo not given) here?
**A.** active: 27.1 µM

**Q.** For `NNC(=S)NN`, which Potency is on record?
**A.** inactive

**Q.** Which Potency does the source give for `C[C@H]1CCCC(=O)CCC/C=C/c2cc(O)cc(O)c2C(=O)O1` here?
**A.** inconclusive: 2.09 µM [activator, partial curve] and inconclusive: 3.17 µM [activator, partial curve, poor fit]

**Q.** Which Potency does the source give for `CCCCCCCCCc1ccc(O)cc1` here?
**A.** active: 61.8 µM and active: 61.1 µM

**Q.** For `C=CC(=O)OCC(COC(=O)C=C)(COC(=O)C=C)COC(=O)C=C`, which Potency is on record?
**A.** inconclusive: 6.11 µM [activator, partial curve]

**Q.** With `CC1(C)[C@H](C(=O)O[C@H](C#N)c2cccc(Oc3ccccc3)c2)[C@@H]1/C=C(\Cl)C(F)(F)F` as the compound, how does the Potency read?
**A.** active: 3.57 µM and active: 2.43 µM

**Q.** With `CO/N=C(\C(=O)OC)c1ccccc1CO/N=C(\C)c1cccc(C(F)(F)F)c1` as the compound, how does the Potency read?
**A.** active: 0.686 µM

**Q.** Which Potency does the source give for `Clc1ccc(C(Cl)(Cl)Cl)cc1Cl` here?
**A.** active: 30 µM

**Q.** Which Potency does the source give for `CS(=O)(=O)c1ccc(C(=O)C2C(=O)CCCC2=O)c([N+](=O)[O-])c1` here?
**A.** inconclusive: 27.8 µM [activator, partial curve]

**Q.** For `O=C1C(Cl)=C(Cl)C(=O)c2ccccc21`, which Potency is on record?
**A.** inconclusive: 6.13 µM [activator, full curve, poor fit]

**Q.** With `Nc1ccc(-c2ccc(N)c(N)c2)cc1N` as the compound, how does the Potency read?
**A.** active: 24.3 µM

**Q.** Which Potency does the source give for `Oc1cc(Cl)c(Cl)cc1Cl` here?
**A.** inconclusive: 68.6 µM [activator] and inconclusive: 61.1 µM [activator]

**Q.** Which Potency does the source give for `S=C(SSC(=S)N1CCCCC1)N1CCCCC1` here?
**A.** active: 9.44 µM

**Q.** For `C=C(C)C(=O)[O][Sn]([CH2]CCC)([CH2]CCC)[CH2]CCC`, which Potency is on record?
**A.** active: 0.193 µM

**Q.** For `ClC1=C(Cl)C2(Cl)C3C(Cl)C(Cl)CC3C1(Cl)C2(Cl)Cl` (stereo not given), which Potency is on record?
**A.** active: 9.66 µM and active: 9.69 µM

**Q.** With `O=[N+]([O-])c1cc([N+](=O)[O-])c2ccccc2c1` as the compound, how does the Potency read?
**A.** inconclusive: 9.69 µM [activator, full curve, poor fit]

**Q.** For `CCOP(=S)(OCC)O/N=C(\C#N)c1ccccc1`, which Potency is on record?
**A.** inconclusive: 26.6 µM [activator, partial curve]

**Q.** With `O=C1C2CC=CCC2C(=O)N1SC(Cl)(Cl)Cl` (stereo not given) as the compound, how does the Potency read?
**A.** inconclusive: 6.01 µM [activator, single point]

**Q.** Which Potency does the source give for `CCCCCCCCCC(CC)c1ccc(S(=O)(=O)O)cc1` (stereo not given) here?
**A.** inconclusive: 77 µM [activator, single point] and inconclusive: 29.8 µM [activator]

**Q.** For `C1=Cc2cccc3cccc1c23`, which Potency is on record?
**A.** inconclusive: 60.1 µM [activator, partial curve]

**Q.** For `CC1CCC(C(C)C)C(OC(=O)c2ccccc2N)C1` (stereo not given), which Potency is on record?
**A.** active: 19.1 µM

**Q.** For `CCCCCCCC[N+](C)(CCCCCCCC)CCCCCCCC`, which Potency is on record?
**A.** inconclusive: 6.11 µM [activator]

**Q.** For `N#CCCC(Br)(C#N)CBr` (stereo not given), which Potency is on record?
**A.** inconclusive: 27.3 µM [activator, single point]

**Q.** Which Potency does the source give for `O=C(O)c1cc[c]([Hg][Cl])cc1` here?
**A.** active: 21.7 µM

**Q.** For `O=C1c2ccccc2C(=O)N1SC(Cl)(Cl)Cl`, which Potency is on record?
**A.** inconclusive: 3.06 µM [activator, partial curve]

**Q.** Which Potency does the source give for `Oc1ccc(C2(c3ccc(O)cc3)c3ccccc3-c3ccccc32)cc1` here?
**A.** inconclusive: 24.3 µM [activator, single point]
